# Laboratory results from PMC4336329 (PLoS ONE, 2015).
# Hit rate of the full screen: of about 310,000 compounds, about 2,200 (0.71%) showed an effect of 50% or more. Effects have a minus sign here. The list shows a part of the results.
# Molecular target: human ether-à-go-go-related gene (hERG) potassium channel (human, UniProt Q12809)
# Experiment: primary screen, population patch clamp on CHO cells stably expressing hERG
# Sequence of human ether-à-go-go-related gene (hERG) potassium channel (Q12809 whole entry, looked up): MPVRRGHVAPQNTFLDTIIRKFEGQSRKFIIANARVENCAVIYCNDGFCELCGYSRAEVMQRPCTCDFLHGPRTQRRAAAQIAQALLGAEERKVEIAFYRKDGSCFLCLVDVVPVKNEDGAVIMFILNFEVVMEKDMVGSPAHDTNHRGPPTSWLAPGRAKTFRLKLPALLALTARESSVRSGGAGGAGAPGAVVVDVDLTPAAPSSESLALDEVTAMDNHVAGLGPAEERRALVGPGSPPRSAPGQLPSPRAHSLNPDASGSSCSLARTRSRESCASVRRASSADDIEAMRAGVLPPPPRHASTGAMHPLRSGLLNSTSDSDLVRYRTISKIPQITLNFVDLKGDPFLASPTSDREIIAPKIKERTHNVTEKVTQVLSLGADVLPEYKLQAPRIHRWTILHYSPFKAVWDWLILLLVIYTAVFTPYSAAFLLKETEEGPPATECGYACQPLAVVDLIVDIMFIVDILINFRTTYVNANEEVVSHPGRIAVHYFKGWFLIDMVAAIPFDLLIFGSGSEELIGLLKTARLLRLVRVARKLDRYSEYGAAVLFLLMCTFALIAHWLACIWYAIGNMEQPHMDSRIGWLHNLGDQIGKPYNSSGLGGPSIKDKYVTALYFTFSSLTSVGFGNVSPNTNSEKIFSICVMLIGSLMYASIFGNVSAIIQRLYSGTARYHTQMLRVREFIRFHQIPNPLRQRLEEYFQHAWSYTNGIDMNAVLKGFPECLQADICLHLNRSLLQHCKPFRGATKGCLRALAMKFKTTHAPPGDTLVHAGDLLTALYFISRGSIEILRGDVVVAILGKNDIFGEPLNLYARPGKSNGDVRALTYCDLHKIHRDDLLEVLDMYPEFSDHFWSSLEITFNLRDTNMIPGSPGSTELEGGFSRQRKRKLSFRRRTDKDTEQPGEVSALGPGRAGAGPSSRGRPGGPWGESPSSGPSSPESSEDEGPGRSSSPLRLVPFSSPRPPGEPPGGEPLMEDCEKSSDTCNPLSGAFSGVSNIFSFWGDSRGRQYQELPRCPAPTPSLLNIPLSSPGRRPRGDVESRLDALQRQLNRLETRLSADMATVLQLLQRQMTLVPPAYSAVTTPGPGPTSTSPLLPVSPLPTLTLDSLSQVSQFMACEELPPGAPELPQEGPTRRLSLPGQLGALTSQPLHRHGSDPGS
row,SMILES,"hERG current change (%, negative = inhibition) at 1uM"
1,COc1ccc(N(CC(=O)NCCSC2CCCCC2)S(=O)(=O)c2ccccc2)c(OC)c1,5.71%
2,Cc1ccc(CCNC(=O)C2CCN(S(=O)(=O)c3cccc4cccnc34)CC2)cc1,10.3%
3,O=C(Nc1cccc(S(=O)(=O)N2CCCC2)c1)c1cccc(OC(F)F)c1,-5.35%
4,O=C(CCC1CCCC1)NCCS(=O)(=O)N1CCN(c2ccc(F)cc2)CC1,-17.9%
5,c1ccc(Cc2nn[nH]n2)cc1,7.6%
6,Cc1ccc(S(=O)(=O)NC(=O)COc2ccccc2C)c(C)c1,-8.68%
7,Cc1csc(NC(=O)c2ccc(Cl)cc2[N+](=O)[O-])n1,-20.2%
8,CCN1C(Nc2ccccc2)=NC[C@@H]1C,13%
9,O=C(c1ccccc1Br)N1CCc2c([nH]c3ccccc23)C1,16.1%
10,CC1CCC(NC(=O)CN2C(=O)NC3(CCCCCC3)C2=O)CC1 (stereo not drawn),-0.921%
11,C/C(=N\NS(=O)(=O)c1c(C)cc(C)cc1C)c1ccncc1,2.35%
12,COc1ccc(NC(=O)c2ccc3nc[nH]c3c2)c(OC)c1,-0.49%
13,COc1ccc(C2=NOC3(CC(=O)N(c4ccc(Cl)cc4)C3=O)C2)c(OC)c1 (stereo not drawn),-4.92%
14,OCC1(Cc2ccccc2)CCN(Cc2ccc(C(F)(F)F)cc2)CC1,-6.85%
15,CN1CC=C(c2c[nH]c3ccccc23)CC1,5.59%
16,CC12CCC3C(CCC4N(CCO)CCC34C)C1CCC2O.Cl (stereo not drawn),20.4%
17,COc1ccc2cc(C3(C)NC(=O)NC3=O)ccc2c1 (stereo not drawn),7.06%
18,Oc1ccc(C2C(c3ccccc3)=NN=C(c3ccc(Cl)cc3)N2O)c(O)c1 (stereo not drawn),1.57%
19,Cc1ccc(/C=C/C(=O)NC2CCS(=O)(=O)C2)cc1 (stereo not drawn),8.88%
20,Cn1ncc(Br)c1C(=O)Nc1c(F)c(F)cc(F)c1F,8.9%
21,O=C(c1cc(Br)c(Br)s1)N1CCOCC1,14.3%
22,CC1=NN(c2ccc(Cl)cc2)C(=O)C1C(c1cccc(O)c1)c1c(C)[nH]n(-c2ccc(Cl)cc2)c1=O (stereo not drawn),3.44%
23,COC(=O)c1ccc(C2C(Oc3ccccc3)C(=O)N2CCc2ccc(OC)c(OC)c2)cc1 (stereo not drawn),14.2%

row,SMILES,"hERG current change (%, negative = inhibition) at 1uM"
1,COc1ccc2c(c1)NP(=S)(Oc1ccccc1)N2 (stereo not drawn),6%
2,COCCNC(=O)Cn1nc(-c2ccccc2)c2ccccc2c1=O,11.9%
3,CC1CCc2nc(/C(C#N)=C/c3ccncc3)sc2C1 (stereo not drawn),9.29%
4,CCc1ccc(NC(=O)C2CCCN(S(=O)(=O)c3ccc4c(c3)CCCN4C(C)=O)C2)cc1 (stereo not drawn),7.33%
5,Cc1ccc(C(=O)C2(C)C3c4cc(Br)ccc4OC(=O)C32C(=O)c2ccco2)cc1 (stereo not drawn),7.08%
6,COc1ccccc1N(CC(O)CN1C(=O)NC(C)(C)C1=O)S(=O)(=O)c1ccc(C)cc1 (stereo not drawn),5.9%
7,CCN(CC)CCNC(=O)c1cc(-c2ccco2)nc2ccccc12.Cl,-55%
8,COc1ccc(OC)c(N/C(=N/C(=S)Nc2ccccc2)Nc2nc(C)cc(C)n2)c1,9.92%
9,Cc1cc(=O)oc2cc(OCC(=O)OCC(=O)NC(C)C)ccc12,12.9%
10,COc1ccc(OCC(O)CNC(=O)Nc2cccc3ccccc23)cc1 (stereo not drawn),12.4%
11,Cc1ccc(NN=C2C(=O)OC(C)(C)OC2=O)c(C)c1,19%
12,CC1CCCC(NC(=O)CSc2ccc(F)cc2)C1C (stereo not drawn),10.7%
13,Cc1cc(=O)[nH]c(SCc2cc(Cl)ccc2OC(F)F)n1,12.4%
14,COc1cc(NC(=O)c2ccccc2F)ccc1NC(=O)c1ccccc1Cl,3.31%
15,CCN(CC1COc2ccccc2O1)C(=S)NCCCN(C)C (stereo not drawn),0.621%
16,O=C(NCc1ccccc1Cl)C(=O)NCC(c1ccco1)N1CCOCC1 (stereo not drawn),1.61%
17,Cc1ccccc1OCc1nnc(SCC(=O)NCc2ccco2)n1C,8.25%
18,CCCCOC(=O)NCN1C(=O)C2C3C=CC(C3)C2C1=O (stereo not drawn),3.08%
19,Cc1nc(NC(=O)CCC(=O)O)sc1C(=O)N(C)C,18.1%
20,CCN(CC)c1ccc(C=Nc2cc(C)cc(C)c2)c(O)c1,15.1%
21,O=C(CN1CCN(c2ccccn2)CC1)Nc1ccc([N+](=O)[O-])cc1C(=O)Nc1ccccc1F,-11.8%
22,CCOc1ccc(NC(=O)CCN2CCN(c3ccccc3)CC2)cc1,3.48%
23,COc1ccc(-c2ccccc2NC(=O)C2CCCN(Cc3ccco3)C2)cc1 (stereo not drawn),-4.31%

row,SMILES,"hERG current change (%, negative = inhibition) at 1uM"
1,CCOC(=O)C1(CCCc2ccccc2)CCN(C(=O)C2CCCN(C(N)=O)C2)CC1 (stereo not drawn),-48.6%
2,COc1cc(OC)cc(C(=O)NCC(=O)OCc2ccc(Cl)c(Cl)c2)c1,-0.0766%
3,COC(=O)c1c(C)[nH]c(C(=O)C(Cc2ccccc2)N(C)C)c1C (stereo not drawn),-4.51%
4,Cc1nc(SC(C(=O)c2ccccc2)c2ccccc2)n[nH]1 (stereo not drawn),20.1%
5,CCC(C(=O)NCc1ccco1)N(C(=O)CNS(=O)(=O)c1ccc(F)cc1)c1ccccc1F (stereo not drawn),1.54%
6,Cc1sc2nc(C)n(/N=C/c3ccccc3O)c(=O)c2c1C,-3.57%
7,COc1ccc(CNC(=O)CSc2nc3ccc(OC)cc3[nH]2)cc1,10.3%
8,CC(C)Cc1nnc(NC(=O)Nc2ccccc2)s1,-10.1%
9,CC(C)N1CCC(=NNC(=O)c2ccccc2[N+](=O)[O-])CC1,-4.79%
10,COc1ccc(S(=O)(=O)N2CCCCC2)cc1NC(=O)c1ccc([N+](=O)[O-])o1,12.4%
11,CCc1c(C)nc2cc(-c3cc(OC)cc(OC)c3)nn2c1N1CCCC1,6.16%
12,CC1C(c2ccccc2)N(C)C(c2ccccc2)CC1(O)c1ccc(F)cc1 (stereo not drawn),8.82%
13,COC(=O)c1ccc(NC(=O)C(=O)c2c[nH]c3ccccc23)cc1,14%
14,O=C(CN(C1CCCCC1)S(=O)(=O)c1ccc(F)cc1)NCc1ccncc1,-2.62%
15,CN1CCc2c(sc3c2C(=O)NC(c2ccccn2)N3)C1 (stereo not drawn),8.5%
16,Cc1ccc2occ(/C=C/C(=O)c3ccccc3O)c(=O)c2c1,5.17%
17,O=C(CNC(=O)c1ccccc1)OCc1cccc([N+](=O)[O-])c1,10.6%
18,C#CCNc1cc(-c2ccccc2)nc2ncnn12,9.37%
19,COc1ccc(C(=O)/C=C/Nc2c(C)n(C)n(-c3ccccc3)c2=O)cc1OC,-5.19%
20,CCCNC(=O)CSc1n[nH]c(=O)n1CCc1ccccc1,16.3%
21,O=C(Nc1ccc(F)cc1)OC1CN2CCC1CC2 (stereo not drawn),-8.44%
22,CCCCN(C)C(=O)C1CCN(Cc2ccc(OCc3ccccc3)cc2)CC1.O=C(O)C(=O)O,-55.7%
23,N#Cc1cccc(NC(=O)COC(=O)C2CCC2)c1,13%

row,SMILES,"hERG current change (%, negative = inhibition) at 1uM"
1,CN1C(=O)c2ccc(C(=O)Nc3ccc4c(c3)OCO4)cc2C1=O,14.2%
2,Cc1ccc(-n2ncc3c(=O)n(CC(=O)N4CCN(c5ccccc5)CC4)cnc32)cc1,-1.58%
3,CCC(CC)COC(=O)C1=C(C)NC(=O)NC1c1ccc(OC)cc1 (stereo not drawn),11.2%
4,CCOc1cc(/C=N/OC(C)=O)ccc1OCc1ccccc1,-0.734%
5,COc1cccc2c1O/C(=N\O)C(C(=O)Nc1cccc(C)c1C)C2 (stereo not drawn),14.1%
6,O=C(Nc1cccnc1)c1ccc(Cl)c(Cl)c1,11.5%
7,COc1cccc(C(=O)Nc2cnc(NC(=O)c3ccco3)cc2C)c1,5.28%
8,Nc1nonc1-n1nnc(C(=O)N/N=C/c2cccnc2)c1CSC1=NCCS1,9.35%
9,O=S(=O)(Nc1cccnc1)c1cccc(Cl)c1,-0.153%
10,C[C@]1(C(=O)NCCCNc2ncc(C(F)(F)F)cc2Cl)C=C[C@@H](Cc2ccccc2)N1C(=O)c1ccccc1,10.8%
11,CCOC(CCn1ccc(O)c(Cc2ccc(Cl)cc2)c1=O)OCC,14.9%
12,O=C(CSc1nnc(CNC(=O)c2cccs2)o1)c1ccc(Cl)cc1,9.54%
13,CCCOc1ccc(C(=O)NCc2ccco2)cc1,17.6%
14,O=C(O)CSc1nnc(-c2ccncc2)n1Cc1ccccc1,11.7%
15,Cc1c(NC(=O)CN(c2ccc(F)cc2)S(=O)(=O)c2ccccc2)c(=O)n(-c2ccccc2)n1C,-3.12%
16,NCCc1ccc(S(N)(=O)=O)cc1,12.1%
17,COc1ccccc1Cn1c(=O)[nH]c2cccnc21,13.1%
18,O=C(Nc1cccc(C(=O)O)c1)/C(=C\c1ccco1)NC(=O)c1ccccc1Cl,8.42%
19,O=C(CCN1CCN(C(c2ccccc2)c2ccccc2)CC1)N/N=C/c1ccc(O)cc1O,-7.66%
20,O=C(O)C1CCCCC1C(=O)NC1CCCCC1 (stereo not drawn),12%
21,O=C(Cc1ccc(F)cc1)Nc1nnc(SCC(=O)NC2CCCC2)s1,7.59%
